Read counts are not given, so values of variants with three or more changes are uncertain.

B1: CPEB3 Ribozyme (parent)
chain: UAACAGGGGGCCACAGCAGAAGCGUUCACGUCGCAGCCCCUGUCAGAUUCUGGUGAAUCUGCGAAUUCUGCUGUAUAUCUC

Variants of B1 are the subject of the series. Briefly: self-cleavage, relative activity (ratio to wild type); higher = more cleavage; in vitro, sequencing. Summed up: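 Relative activity was defined as the cleaved/total read fraction for a variant divided by the same fraction for the unmutated ribozyme. CPEB3 self-cleaving ribozyme libraries were made by rounds of error-prone PCR, barcoded, and transcribed in vitro with T7 RNA polymerase for 5 hours at 37°C, and cleavage ran through transcription plus a 15 min DNase I step before EDTA. Illumina sequencing of template-switched reverse transcripts gave the reads, and DNA sequencing mapped the barcodes. Averages come from three batches, using variants with at least 5 reads.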
C39A C62U U66C: the self-cleavage is 0.12.

Turning to A35U U51C U54C U80C, the self-cleavage was 0.81.

C39U U41C U49A U58C C71G A75U: the self-cleavage turned out to be 0.14.

For the variant C39G G55A A57C, the self-cleavage is 0.1.

In the case of C37U A64G U78C, the self-cleavage came out at 0.52.

C38A A64U U78C: the self-cleavage was determined as 0.06.

For C38G G42A U69C, the self-cleavage is 0.07.

Regarding A35U U60A A75G, the self-cleavage is 0.15.

As for C37U U72C U74A, the self-cleavage came to 1.18.

Regarding C39A U41C U49C U67G, the self-cleavage was determined as 0.14.

Turning to C37U U48C U51C U66C, the self-cleavage came to 0.08.

As to C37U A57G A64U, the self-cleavage stood at 0.16.

For A35U U58C U69A U72C, the self-cleavage worked out at 0.35.

Regarding C39U U41C U54A U72G, the self-cleavage came to 1.01.

G36A U49C C50A U72C A77G: the self-cleavage worked out at 0.17.

Turning to C39U U51A U58C, the self-cleavage was 0.54.

Regarding C37A A45U U49C A56C U60C, the self-cleavage was found to be 0.09.

Consider C39U U67C A75U U76G, for which the self-cleavage came to 0.26.

Consider C38U U41C U49A, for which the self-cleavage came out at 0.22.

C38U A45U G55A U58C C59G: the self-cleavage was found to be 0.14.

C37U A45G G70A: the self-cleavage amounted to 0.26.

With C39A A56G A75G, the self-cleavage was 0.13.

Regarding C38A U41C U78C, the self-cleavage stood at 0.16.

On to C39A U41C U54C U76C, for which the self-cleavage was 0.22.

In the case of C38A U43C G46A A47U, the self-cleavage was 0.13.

Consider C37A A65G U74A, for which the self-cleavage was 0.36.

With C39U U41A A45G U74C U76A, the self-cleavage turned out to be 0.37.

For the variant C38G A65G U72C U78C U80A, the self-cleavage amounted to 0.05.

Take G36A G55U A57G U60A U66A U69C: the self-cleavage was 0.08.

For the variant C37U U74C U80C, the self-cleavage turned out to be 0.89.

For the variant A35U U67G U72G, the self-cleavage was determined as 0.11.

As to C39A C71G A75G, the self-cleavage worked out at 0.24.

With C39A G55A A64G U72C U78C U80A, the self-cleavage came out at 0.04.

Regarding G36A U54C U74C, the self-cleavage worked out at 0.42.

With A35U U58G G61A U72A, the self-cleavage worked out at 0.09.

C39U U54G U72C: the self-cleavage is 0.63.

As for G36U U48C G55A U78C, the self-cleavage is 0.1.

C39G U54C U60C C62U U74C A75G: the self-cleavage stood at 0.06.

As to C38A G42U U54C C62A U78C, the self-cleavage came to 0.13.

On to C37G U67C U80C, for which the self-cleavage worked out at 0.11.

As for C38A A64U C79A, the self-cleavage turned out to be 0.06.

For the variant A35U U51C A56U, the self-cleavage came to 0.28.

As for C38U U43A A57G U72A, the self-cleavage turned out to be 0.23.

For the variant C38U C44A U78C, the self-cleavage was 0.26.

Turning to G36C U48C U51C, the self-cleavage was 0.08.

As to C39U U49C U58C, the self-cleavage turned out to be 0.18.

Consider C38A A45G A56G, for which the self-cleavage stood at 0.1.

Take C37G U48C U54C: the self-cleavage turned out to be 0.23.

Regarding C38U U54C A56G U80A, the self-cleavage was 0.17.

Regarding C38A U41C U72C, the self-cleavage came to 0.65.

For C38G U49A A57G, the self-cleavage turned out to be 0.15.

Take C37A A57G U58C: the self-cleavage was 0.11.

Turning to C39A U51A A57C, the self-cleavage turned out to be 0.24.

Regarding G36A U58A A77G, the self-cleavage turned out to be 0.18.

Regarding A35U U51A A56G U58C C62U, the self-cleavage came to 0.13.

In the case of C37U G42C U51A U66C C79A, the self-cleavage was 0.12.

In the case of C37A U49C U78C, the self-cleavage amounted to 0.21.

Turning to C38U G46A G63U A77G, the self-cleavage stood at 0.1.

A35U U49A G52A U74C: the self-cleavage is 0.66.

A35U U60A A64G U66C: the self-cleavage was determined as 0.14.

As to C39U A57G U72C, the self-cleavage was 0.22.

For the variant G36A U41C U48C U49C A75U U78A, the self-cleavage was 0.08.

A35U U51G C68G A77G: the self-cleavage turned out to be 0.11.

Consider A35U U49G U51A, for which the self-cleavage was 0.24.

As to C37U U58C A65G U78C, the self-cleavage worked out at 0.04.

For A35U U49C G53A U80A, the self-cleavage is 0.13.

In the case of A35U U51C U67A A75G, the self-cleavage came out at 0.09.

Consider G36U A45G U48C, for which the self-cleavage turned out to be 0.17.

As for G36A U54C U69G C81A, the self-cleavage turned out to be 0.05.

As for G36U C44G U60C G61A U72C, the self-cleavage was 0.16.

As to C38A G42A U78G, the self-cleavage is 0.18.

Regarding G36C U51C A65G U78C, the self-cleavage came out at 0.19.

On to G36A U41C C44G G70A, for which the self-cleavage was determined as 0.29.

On to C37U A45G U60C U67A, for which the self-cleavage amounted to 0.21.

As for G36U G46U A47U, the self-cleavage was found to be 0.13.

In the case of G36U U51G A56U A57U, the self-cleavage amounted to 0.08.

Consider C38U A45G A56G, for which the self-cleavage worked out at 0.24.

Turning to C37U U41A G73U, the self-cleavage was found to be 0.07.

As for C37U U67C U78C, the self-cleavage stood at 0.1.

As to G36U U49C A64C U72A U80A, the self-cleavage amounted to 0.09.

With C39A G46U U51C, the self-cleavage came out at 0.09.

A35U U49A A56U U69A: the self-cleavage came out at 0.2.

With C39U G46U U78C, the self-cleavage is 0.26.

For C39A A45U A57G U74C, the self-cleavage was found to be 0.1.

As for A35U U48C U72C, the self-cleavage was 0.21.

As to C38G A47G U74C A75U, the self-cleavage is 0.11.

As to G36U U41A A45U A56C U76A, the self-cleavage amounted to 0.07.

A35U U49C U72C U78A: the self-cleavage was 0.14.

For A35U U58C U72A, the self-cleavage amounted to 0.25.

As for C39U U41A U43C, the self-cleavage was 0.44.

Regarding C38A A56G U58C, the self-cleavage was 0.24.

Take G36A U41A U48C U72A: the self-cleavage was determined as 0.14.

For C38U A45G U54C, the self-cleavage was found to be 0.67.

As to C38U A45C A47U U78C, the self-cleavage was 0.06.

For the variant G36A A65U U66C, the self-cleavage came out at 0.13.

C39A G63U A64G U67A: the self-cleavage worked out at 0.08.

Consider C39A G42A U54C A56G, for which the self-cleavage came out at 0.07.

C37A U54C U80A: the self-cleavage amounted to 0.22.

C39A A45G U78C: the self-cleavage was 0.25.

With C37A A47G U51A A57G, the self-cleavage worked out at 0.33.

Turning to C39A A45G A75G U80G, the self-cleavage amounted to 0.07.

As for G36A U43A U48C U72C, the self-cleavage is 0.24.

For C39A G46U A77G, the self-cleavage was 0.14.

With C39A U69A U72C, the self-cleavage was found to be 0.19.

On to C37U U51A U72C, for which the self-cleavage is 0.76.

On to A35U U51C A56U A64U U78C, for which the self-cleavage turned out to be 0.06.

Regarding C39A U49C U60C U78C, the self-cleavage was found to be 0.14.

As for C39A U49C U54C A64U, the self-cleavage came out at 0.14.

In the case of A35U U51C U72A, the self-cleavage is 0.33.

In the case of G36C A45G U58C A77U, the self-cleavage was 0.03.

Consider C37U U58C U74C, for which the self-cleavage was 0.47.

Turning to G36A U51C A56G, the self-cleavage is 0.17.

In the case of A35U U74C U80C, the self-cleavage worked out at 0.89.

Take C37U U54A A56G: the self-cleavage was determined as 0.24.

Take C39U U49C G55U: the self-cleavage stood at 0.16.

Consider C40A A45G U67C, for which the self-cleavage came out at 0.07.

For C37U U43C A47U A56G U78C, the self-cleavage worked out at 0.1.

Turning to C38A U41G A47G U51C U80C, the self-cleavage came to 0.08.

C37G C38G A45U A65G C71G A75C: the self-cleavage stood at 0.03.

Consider C38U U54C U67C U78C, for which the self-cleavage amounted to 0.08.

As for C37G A57G U60A, the self-cleavage worked out at 0.15.

Turning to C39U U43A G55A, the self-cleavage is 0.93.

With C39A U43C U60A, the self-cleavage was 0.16.

For the variant C39U U54C U72C U76C, the self-cleavage worked out at 0.8.

Turning to C38G G55U U80A, the self-cleavage worked out at 0.08.

As to G36A A57G U72C, the self-cleavage came out at 0.14.

For C37G U41A U54C, the self-cleavage turned out to be 0.3.

For C38U A56G U74C U76A, the self-cleavage worked out at 0.47.

As to A35U U67C G73A, the self-cleavage worked out at 0.2.

On to A35U U51A A64G U67C, for which the self-cleavage was determined as 0.11.

Turning to C39U U41C C71G, the self-cleavage was found to be 0.15.

As for C38G U51A A56G, the self-cleavage was determined as 0.11.

As for C39A A45G A64U, the self-cleavage was found to be 0.19.

For the variant A35U U69C G73C U74C, the self-cleavage was determined as 0.13.

With C39U U72C U76A, the self-cleavage was determined as 1.07.

Consider C38U A65G U74C, for which the self-cleavage amounted to 0.36.

Regarding C37U C40A G42U, the self-cleavage was 0.23.

Regarding G36U U43C U67A, the self-cleavage turned out to be 0.18.

As for C38A U48C U78C, the self-cleavage is 0.14.

With C39U A45G U48C U49A U78C, the self-cleavage was 0.09.

For the variant G36A A56G U60C, the self-cleavage amounted to 0.15.

In the case of C39U A45G C59G, the self-cleavage worked out at 0.11.

With C39A G63A U78C U80C, the self-cleavage was found to be 0.21.

Consider A35U U51C U78C, for which the self-cleavage is 0.29.

With C37U U41C A47G, the self-cleavage was 0.84.

With A35U U60C C71U, the self-cleavage turned out to be 0.14.

On to A35U U49C U51C U54C, for which the self-cleavage is 0.43.

Take C38U U41C U74C U80C: the self-cleavage was 0.59.

For C39U U51G A65G C71G U78A, the self-cleavage was 0.13.

Turning to G36A A45G U54A U80C, the self-cleavage turned out to be 0.09.

C39A U41C U43A U49C: the self-cleavage is 0.22.

Turning to G36C C37U U49C U60C U80C, the self-cleavage was found to be 0.22.

For the variant C38U A57G U58C U67C U69A, the self-cleavage amounted to 0.04.

As to A35U U51C A56C A65U, the self-cleavage came to 0.06.

A35U U49C U67C: the self-cleavage turned out to be 0.07.

Consider A35U U49C U67A, for which the self-cleavage was 0.34.

Regarding C38U U60C U69G, the self-cleavage was 0.3.

Take A35U U49A A64G: the self-cleavage amounted to 0.14.

Consider C38U C40A A45G U66C U69C, for which the self-cleavage was determined as 0.08.

C38U U48G U51C A57G: the self-cleavage was determined as 0.07.

For the variant C37U U43A U74C, the self-cleavage stood at 1.07.

On to C39A A57G A64G U80C, for which the self-cleavage amounted to 0.1.

In the case of C38U U41C A65G U76A, the self-cleavage was 0.28.

Regarding A35U U49A C68A U80G, the self-cleavage was 0.1.

For the variant G36U C44G G52A A65G U72C, the self-cleavage came out at 0.1.

On to C39U A45C U67C, for which the self-cleavage was 0.11.

On to A35U U48G U51C, for which the self-cleavage is 0.16.

(Values after the RNAGym collection of RNA variant scans (doi:10.1093/nar/gkz1192).)
